Reference: the supplement of paper PMC3724861
The other results are listed elsewhere or left out.

Test system: T1, Caupolican (Caup) homeodomain DNA-binding domain
T1 sequence: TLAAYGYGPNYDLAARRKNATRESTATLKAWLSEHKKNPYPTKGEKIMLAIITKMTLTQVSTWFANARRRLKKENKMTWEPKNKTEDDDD
Assay: PBM E-score (8-mer, recovered from the published 9-mer minima) (E-score (dimensionless, -0.5 to 0.5)); Drosophila protein; higher = stronger relative binding preference, active = 0.31 or more
Procedure, shortened: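 Caup's homeodomain DNA-binding domain (residues 214-303) was produced by in vitro transcription and translation and applied at 100 nM to custom-designed protein binding microarrays. Each value is an enrichment score giving relative binding preference for a short DNA word; higher means stronger. Published 9-mer scores were the minimum of their two constituent 8-mer scores, and the 8-mer values were recovered from those minima. A cutoff of 0.31 marks candidate binding sequences.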

Row | Sequence | PBM E-score
1 | GGAAGACA | inactive: 0.12
2 | ATAAAGAA | inactive: 0.125
3 | TAAGGGCA | ≥ -0.0465
4 | CAATCATA | inactive: 0.185
5 | ACCAGGGC | inactive: -0.112
6 | ATCGGTAG | inactive: 0.0388
7 | ATTCAAGC | inactive: 0.05
8 | ACTACGGA | inactive: 0.0378
9 | AACACTGC | inactive: 0.0819
10 | TCTGGTCA | inactive: 0.00845
11 | CACTAGGC | inactive: -0.0461
12 | AGGAGTGG | inactive: -0.118
13 | CACCAAAA | inactive: -0.00895
14 | CCAATGGC | inactive: -0.17
15 | AGTCAGCC | inactive: -0.129
16 | CCGAGTCA | inactive: -0.0177
17 | TACCCGGA | ≥ -0.0327
18 | GATAAAAC | inactive: 0.112
19 | CCAGCATC | inactive: -0.136
20 | AATCGTAA | inactive: 0.173
21 | CATGAATC | inactive: 0.0786
22 | GTGCTGTA | inactive: 0.115
23 | GAGACCGC | inactive: -0.221
24 | CGCTTGTC | inactive: 0.272
25 | AGCAGCGG | inactive: -0.202

Row | Sequence | PBM E-score
26 | ACCGCTCT | inactive: -0.16
27 | CTGATCTA | inactive: 0.0465
28 | CTACCCCA | inactive: -0.12
29 | AAACGTTC | inactive: -0.0225
30 | AGCTGAGA | inactive: -0.134
31 | AGCTAGAA | inactive: -0.0295
32 | CAGCAACG | inactive: 0.0355
33 | GGACGACC | inactive: -0.118
34 | CCCGGTCG | inactive: -0.25
35 | ATGGCTCC | inactive: -0.0423
36 | CCGCGACC | inactive: -0.249
37 | TAAAGTTA | inactive: 0.083
38 | GAGGCTCC | inactive: -0.134
39 | AAATTGCC | inactive: -0.0176
40 | AGCCACGC | inactive: -0.235
41 | CAAGGGCC | inactive: -0.135
42 | AAGTTCCA | inactive: -0.0168
43 | ATAGTTTG | inactive: 0.145
44 | AAAACCCC | inactive: -0.151
45 | TCTACACA | inactive: 0.157
46 | CCCGCAGA | inactive: -0.21
47 | GCCTTGAA | inactive: -0.119
48 | AATCCTAG | inactive: -0.0191
49 | ATGCGAGG | inactive: -0.0607
50 | ATGCGATA | inactive: 0.12

Row | Sequence | PBM E-score
51 | GCGGTTTA | inactive: 0.0192
52 | CAAATGAA | inactive: 0.0763
53 | TCCCCCCA | inactive: -0.352
54 | CGACTCCC | inactive: -0.0785
55 | ACCATACT | inactive: 0.137
56 | AAAGATGC | inactive: -0.0199
57 | TAAGAAGA | inactive: -0.0192
58 | ATACCGAT | inactive: 0.0703
59 | AATTATAA | inactive: 0.108
60 | TACCTTGA | inactive: 0.0541
61 | ATGAAAGG | inactive: -0.031
62 | GCGAACCA | inactive: -0.0128
63 | CCACGCAG | inactive: -0.167
64 | CATAAGAA | inactive: 0.146
65 | GGAGCCTA | inactive: -0.191
66 | AAGTGCGC | inactive: -0.114
67 | GTATAAAC | inactive: 0.125
68 | GAGGCGCA | inactive: -0.169
69 | CCCAAATA | inactive: -0.0284
70 | TAAATGGA | inactive: 0.0634
71 | GAAGACCC | inactive: -0.204
72 | AGTATGGG | inactive: -0.0126
73 | ATGTCAAG | inactive: 0.309
74 | AAATAGGC | inactive: -0.0525
75 | CTAATAGC | inactive: -0.0695

Row | Sequence | PBM E-score
76 | ACCGTTGC | inactive: -0.134
77 | AGGTTGCG | inactive: -0.121
78 | TACGGTCA | inactive: -0.0134
79 | CGAGCTAC | inactive: 0.0214
80 | GATCATAA | inactive: 0.124
81 | AGTCCTAC | inactive: 0.0649
82 | AAACATAC | inactive: 0.292
83 | CATTAATC | inactive: 0.128
84 | AGGACCAT | inactive: -0.00978
85 | GGAGGTCA | inactive: -0.134
86 | ATGCGATC | inactive: 0.0365
87 | CACGACTG | inactive: 0.0114
88 | CCTACGGC | inactive: -0.245
89 | TCGCGGCA | inactive: -0.229
90 | ACCCCTCA | inactive: -0.091
91 | CCCGTCAG | inactive: -0.237
92 | AACTGTGA | inactive: 0.0854
93 | GGAAAGTA | inactive: 0.0062
94 | TGCGCCCA | inactive: -0.134
95 | TGACAAAA | inactive: 0.186
96 | AGATACAT | active: 0.368
97 | TCACGGGA | inactive: 0.00917
98 | CATCGCAA | inactive: 0.0975
99 | ACACGACT | inactive: 0.251
100 | GGACAACA | active: 0.336

Row | Sequence | PBM E-score
101 | ACCTTCGA | inactive: -0.0125
102 | CAGCTTAA | inactive: 0.0168
103 | GAACCTGA | inactive: 0.00903
104 | ATAAGAGA | inactive: 0.064
105 | GTGAAATA | inactive: 0.161
106 | ATAAAACC | inactive: 0.0396
107 | CTACGCGA | inactive: -0.0597
108 | AACTTCAA | inactive: 0.166
109 | ATACATAG | inactive: 0.292
110 | CATGACAG | inactive: 0.151
111 | AAGCGAGC | inactive: -0.103
112 | TGGACCCA | ≥ -0.0464
113 | AACCAATC | ≥ 0.122
114 | AAATGAGT | inactive: 0.0817
115 | ACGAAAGT | inactive: 0.0147
116 | GCAAGCGC | inactive: -0.154
117 | GGACACCC | inactive: -0.0581
118 | ACCCCAAT | ≥ 0.0252
119 | AGTCAGTC | inactive: -0.0572
120 | GAGCTAAC | inactive: -0.0389
121 | AATTCCGG | inactive: -0.0689
122 | ACTCAACC | inactive: -0.0321
123 | GCCGGCCA | inactive: -0.229
124 | CGAGCGGC | inactive: -0.235
125 | CAAAGCAA | inactive: 0.0327

Row | Sequence | PBM E-score
126 | CCCATCCA | inactive: -0.0121
127 | CGATGCCG | inactive: -0.203
128 | ATAGGAAA | inactive: 0.0909
129 | AGTCCTTC | inactive: -0.106
130 | ATCCTATC | inactive: 0.0788
131 | GTGAGACA | inactive: 0.0534
132 | GCCAAACC | inactive: -0.168
133 | AGTCAGTA | ≥ 0.115
134 | GCTCCTCA | inactive: -0.234
135 | ATAATTTC | inactive: 0.00693
136 | TATACTCA | inactive: 0.151
137 | ACGAACCC | inactive: -0.134
138 | CCGAAGAA | inactive: -0.128
139 | AGGTACAT | active: 0.389
140 | CCCTAGGA | inactive: -0.141
141 | AATCACGA | inactive: 0.0661
142 | CAACAGTC | inactive: 0.0344
143 | CGGTTTCC | inactive: -0.0505
144 | CTCGTATC | inactive: 0.124
145 | GAATTATC | inactive: 0.15
146 | CCCCATCC | inactive: -0.227
147 | CACAAAAC | inactive: 0.0882
148 | ATGGTCCA | ≥ 0.0351
149 | GACATCGC | inactive: 0.185
150 | ATAAGGTG | inactive: 0.0188

Row | Sequence | PBM E-score
151 | TCGGACAA | inactive: 0.191
152 | TTAGATAA | inactive: 0.0531
153 | CGTGCATA | inactive: 0.0541
154 | CTGTCTGA | inactive: -0.00753
155 | ATGTCCGC | inactive: 0.204
156 | TCTGTCAA | inactive: 0.157
157 | AGAACGCA | inactive: -0.00793
158 | TCGATCAA | inactive: 0.00111
159 | TGAGCAAA | inactive: 0.0543
160 | AGAATTGC | inactive: 0.0219
161 | AGTGCTAC | inactive: 0.0654
162 | CCAAGGAC | inactive: -0.0684
163 | CAAGCTGC | inactive: -0.0962
164 | CAATAACA | inactive: 0.238
165 | GCCATCCC | inactive: -0.155
166 | ACTATTCT | inactive: 0.03
167 | CGTGCTTA | inactive: 0.0701
168 | ACAGACAC | inactive: 0.256
169 | GCTCATCA | inactive: -0.0651
170 | CCTACATC | inactive: 0.144
171 | ACACCGAT | inactive: 0.158
172 | AGTTGACA | inactive: 0.246
173 | CCGGCGTC | inactive: -0.2
174 | ACCGCATA | ≥ 0.0513
175 | CTCGCGTC | inactive: -0.0603

Row | Sequence | PBM E-score
176 | CAATATAC | inactive: 0.151
177 | CCAGATAG | inactive: -0.0538
178 | AAAGTTAT | inactive: 0.0955
179 | CGGTATTC | inactive: 0.0875
180 | CTGCGTGA | inactive: -0.0361
181 | AAGATTGC | inactive: -0.00712
182 | GGGTTGCA | inactive: 0.0238
183 | GGTATGAA | inactive: 0.0695
184 | CATGCACC | inactive: 0.0878
185 | CTCGAGTC | inactive: -0.105
186 | GAGCCCAA | inactive: -0.0752
187 | ATTATATC | inactive: 0.158
188 | ATGGAGAC | inactive: 0.0375
189 | GCTAGCTA | inactive: -0.112
190 | CGAGGTGC | inactive: -0.0742
191 | ACGTAAGC | inactive: -0.0813
192 | AACGGAGT | ≥ 0.0179
193 | ATCTCGTA | ≥ 0.145
194 | TACTAGAA | inactive: 0.163
195 | GGTTAGAA | inactive: -0.043
196 | CAGCCATG | inactive: 0.0498
197 | CGTAACGC | inactive: -0.0474
198 | GCAGCTCC | inactive: -0.245
199 | CCCGCTTA | inactive: -0.134
200 | AGGTCAAG | inactive: -0.117

Row | Sequence | PBM E-score
201 | CAAGGGTC | inactive: -0.17
202 | GGCTCTAA | inactive: -0.0637
203 | AGCAAATA | inactive: 0.111
204 | AAGCTATA | inactive: 0.0484
205 | CGAAATAC | inactive: 0.132
206 | GTTGCGTA | inactive: 0.0939
207 | AGTAAGAC | inactive: 0.0795
208 | GTACGAGA | inactive: 0.0421
209 | TCAGATCA | inactive: 0.0295
210 | ACATGACC | inactive: 0.303
211 | GGTGAAAC | inactive: 0.0128
212 | ATTTCGAA | inactive: 0.125
213 | CTTGTCCC | inactive: 0.186
214 | CTTTTATC | inactive: -0.116
215 | GAAACTCC | inactive: -0.157
216 | AATGCTAA | inactive: 0.0817
217 | GGCGATTA | inactive: -0.05
218 | AGCAAAGG | inactive: -0.00335
219 | AGTGTGGG | inactive: -0.143
220 | CAGGCGAC | inactive: -0.136
221 | GGTTAAGA | inactive: 0.0292
222 | ACGCAGAG | inactive: -0.108
223 | CGATTTCC | inactive: -0.0327
224 | CAGGTCAC | inactive: -0.141
225 | TAATCTGA | inactive: 0.0961
